Synthetic gut communities (20 or 21 species) grown anaerobically with drug for 24 h at the dose given, then challenged with the named pathogen. Pathogen growth (luminescence, or colony counts for V. cholerae) or community OD578 as fold of untreated communities, mean of three; above 1 = more growth. No active / inactive call.
Legend:
[1] = test system: Salmonella enterica Typhimurium in Com20; test: S. Typhimurium luminescence in drug-pretreated Com20 relative to untreated Com20 (fold of untreated control); higher = more pathogen expansion
[2] = test system: Salmonella enterica Typhimurium (community: Com21 (Com20 + E. coli ED1a)); test: pathogen growth (luminescence or CFU) in drug-pretreated community relative to untreated community (fold of untreated control); higher = more pathogen expansion
[3] = test system: Com20 synthetic gut community; test: Com20 community biomass OD578 after 24 h drug treatment relative to untreated (fraction of untreated control); higher = more community growth
[4] = drug pretreatment concentration 10 µM
[5] = drug pretreatment concentration 20 µM
[6] = drug pretreatment concentration 40 µM
[7] = drug pretreatment concentration 80 µM
[8] = drug pretreatment concentration 160 µM
[9] = drug pretreatment concentration 2.5 µM
[10] = drug pretreatment concentration 5 µM

SMILES: C[C@@H](O[C@H]1OCCN(Cc2n[nH]c(=O)[nH]2)[C@H]1c1ccc(F)cc1)c1cc(C(F)(F)F)cc(C(F)(F)F)c1 [Aprepitant]
- S. Typhimurium luminescence [1, 4]: 1.52
- S. Typhimurium luminescence [1, 5]: 1.22
- S. Typhimurium luminescence [1, 6]: 1.26
- S. Typhimurium luminescence [1, 7]: 1.07
- S. Typhimurium luminescence [1, 8]: 1.07
- pathogen growth [2, 4]: 1.19
- pathogen growth [2, 5]: 1.28
- pathogen growth [2, 6]: 2.25
- pathogen growth [2, 7]: 1.48
- pathogen growth [2, 8]: 1.25
- Com20 community biomass OD578 [3, 4]: 1.03
- Com20 community biomass OD578 [3, 5]: 1.02
- Com20 community biomass OD578 [3, 6]: 1.05
- Com20 community biomass OD578 [3, 7]: 1.06
- Com20 community biomass OD578 [3, 8]: 1.06

SMILES: CCc1oc2ccccc2c1C(=O)c1cc(Br)c(O)c(Br)c1 [Benzbromarone]
- S. Typhimurium luminescence [1, 4]: 2.46
- S. Typhimurium luminescence [1, 5]: 1.76
- S. Typhimurium luminescence [1, 6]: 2.1
- S. Typhimurium luminescence [1, 7]: 4.61
- S. Typhimurium luminescence [1, 8]: 3.77
- pathogen growth [2, 4]: 2.26
- pathogen growth [2, 5]: 2.03
- pathogen growth [2, 6]: 2.88
- pathogen growth [2, 7]: 2.94
- pathogen growth [2, 8]: 5.94
- Com20 community biomass OD578 [3, 4]: 0.943
- Com20 community biomass OD578 [3, 5]: 0.936
- Com20 community biomass OD578 [3, 6]: 0.87
- Com20 community biomass OD578 [3, 7]: 0.712
- Com20 community biomass OD578 [3, 8]: 0.724

SMILES: COCCOC(=O)C1=C(C)NC(C)=C(C(=O)OC/C=C/c2ccccc2)C1c1cccc([N+](=O)[O-])c1 (stereo not given) [Cilnidipine]
- S. Typhimurium luminescence [1, 9]: 1.5
- S. Typhimurium luminescence [1, 10]: 0.816
- S. Typhimurium luminescence [1, 4]: 0.71
- S. Typhimurium luminescence [1, 5]: 0.846
- S. Typhimurium luminescence [1, 6]: 1.09
- pathogen growth [2, 9]: 0.928
- pathogen growth [2, 10]: 0.855
- pathogen growth [2, 4]: 0.758
- pathogen growth [2, 5]: 0.865
- pathogen growth [2, 6]: 0.717
- Com20 community biomass OD578 [3, 9]: 1.06
- Com20 community biomass OD578 [3, 10]: 1.07
- Com20 community biomass OD578 [3, 4]: 1.07
- Com20 community biomass OD578 [3, 5]: 1.02
- Com20 community biomass OD578 [3, 6]: 1.04

SMILES: COc1cccc2c1C(=O)c1c(O)c3c(c(O)c1C2=O)C[C@@](O)(C(=O)CO)C[C@@H]3O[C@H]1C[C@H](N)[C@H](O)[C@H](C)O1 [Doxorubicin]
- S. Typhimurium luminescence [1, 4]: 1.08
- S. Typhimurium luminescence [1, 5]: 0.943
- S. Typhimurium luminescence [1, 6]: 0.567
- S. Typhimurium luminescence [1, 7]: 0.5
- S. Typhimurium luminescence [1, 8]: 1.12
- pathogen growth [2, 4]: 1.34
- pathogen growth [2, 5]: 0.803
- pathogen growth [2, 6]: 0.653
- pathogen growth [2, 7]: 1.19
- pathogen growth [2, 8]: 1.13
- Com20 community biomass OD578 [3, 4]: 0.964
- Com20 community biomass OD578 [3, 5]: 0.935
- Com20 community biomass OD578 [3, 6]: 0.89
- Com20 community biomass OD578 [3, 7]: 0.888
- Com20 community biomass OD578 [3, 8]: 0.922

SMILES: CC[C@H]1OC(=O)[C@H](C)[C@@H](O[C@H]2C[C@@](C)(OC)[C@@H](O)[C@H](C)O2)[C@H](C)[C@@H](O[C@@H]2O[C@H](C)C[C@H](N(C)C)[C@H]2O)[C@](C)(O)C[C@@H](C)C(=O)[C@H](C)[C@@H](O)[C@]1(C)O [Erythromycin]
- S. Typhimurium luminescence [1, 4]: 6.43
- S. Typhimurium luminescence [1, 5]: 5.63
- S. Typhimurium luminescence [1, 6]: 5.8
- S. Typhimurium luminescence [1, 7]: 6.07
- S. Typhimurium luminescence [1, 8]: 5.67
- pathogen growth [2, 4]: 4.55
- pathogen growth [2, 5]: 4.43
- pathogen growth [2, 6]: 5.3
- pathogen growth [2, 7]: 12.2
- pathogen growth [2, 8]: 23.7
- Com20 community biomass OD578 [3, 4]: 0.391
- Com20 community biomass OD578 [3, 5]: 0.336
- Com20 community biomass OD578 [3, 6]: 0.355
- Com20 community biomass OD578 [3, 7]: 0.331
- Com20 community biomass OD578 [3, 8]: 0.329

SMILES: N[C@@H](Cc1cc(I)c(Oc2cc(I)c(O)c(I)c2)c(I)c1)C(=O)O [L-Thyroxin]
- S. Typhimurium luminescence [1, 9]: 1.05
- S. Typhimurium luminescence [1, 10]: 0.792
- S. Typhimurium luminescence [1, 4]: 0.597
- S. Typhimurium luminescence [1, 5]: 0.518
- S. Typhimurium luminescence [1, 6]: 0.6
- pathogen growth [2, 9]: 1.2
- pathogen growth [2, 10]: 1.19
- pathogen growth [2, 4]: 0.906
- pathogen growth [2, 5]: 0.77
- pathogen growth [2, 6]: 0.625
- Com20 community biomass OD578 [3, 9]: 1.02
- Com20 community biomass OD578 [3, 10]: 1.03
- Com20 community biomass OD578 [3, 4]: 1.03
- Com20 community biomass OD578 [3, 5]: 1.04
- Com20 community biomass OD578 [3, 6]: 1.03

SMILES: CCOC(=O)N1CCC(=C2c3ccc(Cl)cc3CCc3cccnc32)CC1 [Loratadine]
- S. Typhimurium luminescence [1, 9]: 1.05
- S. Typhimurium luminescence [1, 10]: 0.82
- S. Typhimurium luminescence [1, 4]: 0.68
- S. Typhimurium luminescence [1, 5]: 0.637
- S. Typhimurium luminescence [1, 6]: 0.754
- Com20 community biomass OD578 [3, 9]: 1
- Com20 community biomass OD578 [3, 10]: 1.02
- Com20 community biomass OD578 [3, 4]: 1.01
- Com20 community biomass OD578 [3, 5]: 1.01
- Com20 community biomass OD578 [3, 6]: 0.956

SMILES: Clc1ccc(COC(Cn2ccnc2)c2ccc(Cl)cc2Cl)c(Cl)c1 (stereo not given) [Miconazole]
- S. Typhimurium luminescence [1, 4]: 1.49
- S. Typhimurium luminescence [1, 5]: 1.09
- S. Typhimurium luminescence [1, 6]: 0.943
- S. Typhimurium luminescence [1, 7]: 1.57
- S. Typhimurium luminescence [1, 8]: 2.71
- pathogen growth [2, 4]: 1.64
- pathogen growth [2, 5]: 1.29
- pathogen growth [2, 6]: 1.78
- pathogen growth [2, 7]: 3.28
- pathogen growth [2, 8]: 4.61
- Com20 community biomass OD578 [3, 4]: 1.07
- Com20 community biomass OD578 [3, 5]: 1.04
- Com20 community biomass OD578 [3, 6]: 0.941
- Com20 community biomass OD578 [3, 7]: 0.743
- Com20 community biomass OD578 [3, 8]: 0.449

SMILES: COc1ccc2[nH]c([S+]([O-])Cc3ncc(C)c(OC)c3C)nc2c1 (stereo not given) [Omeprazole]
- S. Typhimurium luminescence [1, 4]: 1.59
- S. Typhimurium luminescence [1, 5]: 0.909
- S. Typhimurium luminescence [1, 6]: 1.09
- S. Typhimurium luminescence [1, 7]: 1.07
- S. Typhimurium luminescence [1, 8]: 1.19
- pathogen growth [2, 4]: 0.938
- pathogen growth [2, 5]: 0.843
- pathogen growth [2, 6]: 0.887
- pathogen growth [2, 7]: 0.777
- pathogen growth [2, 8]: 0.727
- Com20 community biomass OD578 [3, 4]: 1.04
- Com20 community biomass OD578 [3, 5]: 1.01
- Com20 community biomass OD578 [3, 6]: 1.02
- Com20 community biomass OD578 [3, 7]: 0.993
- Com20 community biomass OD578 [3, 8]: 0.924

SMILES: CN(N=O)C(=O)N[C@@H](C=O)[C@@H](O)[C@H](O)[C@H](O)CO [Streptozotocin]
- S. Typhimurium luminescence [1, 4]: 1.52
- S. Typhimurium luminescence [1, 5]: 2.07
- S. Typhimurium luminescence [1, 6]: 4.36
- S. Typhimurium luminescence [1, 7]: 5.04
- S. Typhimurium luminescence [1, 8]: 3.49
- pathogen growth [2, 4]: 4.38
- pathogen growth [2, 5]: 8
- pathogen growth [2, 6]: 17
- pathogen growth [2, 7]: 18.5
- pathogen growth [2, 8]: 23.4
- Com20 community biomass OD578 [3, 4]: 1.01
- Com20 community biomass OD578 [3, 5]: 0.984
- Com20 community biomass OD578 [3, 6]: 0.846
- Com20 community biomass OD578 [3, 7]: 0.841
- Com20 community biomass OD578 [3, 8]: 0.76

SMILES: C[C@]1(Cn2ccnn2)[C@H](C(=O)O)N2C(=O)C[C@H]2S1(=O)=O [Tazobactam]
- S. Typhimurium luminescence [1, 4]: 1.81
- S. Typhimurium luminescence [1, 5]: 2.19
- S. Typhimurium luminescence [1, 6]: 3.3
- S. Typhimurium luminescence [1, 7]: 3.09
- S. Typhimurium luminescence [1, 8]: 4.72
- pathogen growth [2, 4]: 2.41
- pathogen growth [2, 5]: 3.04
- pathogen growth [2, 6]: 3.82
- pathogen growth [2, 7]: 5.3
- pathogen growth [2, 8]: 38.4
- Com20 community biomass OD578 [3, 4]: 0.843
- Com20 community biomass OD578 [3, 5]: 0.728
- Com20 community biomass OD578 [3, 6]: 0.586
- Com20 community biomass OD578 [3, 7]: 0.855
- Com20 community biomass OD578 [3, 8]: 0.649

SMILES: CCCc1nc2c(C)cc(-c3nc4ccccc4n3C)cc2n1Cc1ccc(-c2ccccc2C(=O)O)cc1 [Telmisartan]
- S. Typhimurium luminescence [1, 4]: 1.01
- S. Typhimurium luminescence [1, 5]: 0.597
- S. Typhimurium luminescence [1, 6]: 0.468
- S. Typhimurium luminescence [1, 7]: 0.54
- S. Typhimurium luminescence [1, 8]: 0.653
- pathogen growth [2, 4]: 0.745
- pathogen growth [2, 5]: 0.65
- pathogen growth [2, 6]: 0.514
- pathogen growth [2, 7]: 0.913
- pathogen growth [2, 8]: 2.23
- Com20 community biomass OD578 [3, 4]: 0.979
- Com20 community biomass OD578 [3, 5]: 0.977
- Com20 community biomass OD578 [3, 6]: 0.921
- Com20 community biomass OD578 [3, 7]: 0.927
- Com20 community biomass OD578 [3, 8]: 0.957
